Data published in PubChem BioAssay AID504832 (National Center for Advancing Translational Sciences (NCATS), 2011).
Hit rate of the full screen: of about 310,000 compounds, about 18,000 (5.8%) were called active. The inconclusive results got no clear call from the source; some entries with a clear call stand among them for comparison. Calls come from the whole dose curve; as a rule, active = well fitted inhibition curve with a large enough effect; inconclusive = small, poorly fitted or top-dose-only effect, or another doubt; inactive = no such curve, though single readings can be large or run the other way. Potencies of inconclusive entries are left out as doubtful fits.

Test: Primary qHTS for delayed death inhibitors of the malarial parasite plastid, 48 hour incubation
Settings: P. falciparum luciferase growth in erythrocytes; series mostly up to 28.7 µM
Summary of the method: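 Luminescence readout; reporter = integrated firefly luciferase in P. falciparum. RBC culture at 2% hematocrit, 0.1% parasitemia final, 37 C/5% CO2; decreased signal taken as growth inhibition.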
Potency is the fitted concentration of half-maximal effect; tags give direction and shape of the fitted curve.

SMILES	Potency
CC1CCCCC1NC(=S)NC(=O)c1sc2ccccc2c1Cl (stereo not given)	inconclusive [inhibitor, full curve, poor fit]
CCc1ccc(-c2nc(-c3ccncc3)no2)cc1	inactive
Cc1ccc2c(=O)n3c(nc2c1)C(Cc1ccccc1)NC(=O)c1ccc(Cl)cc1-3 (stereo not given)	inconclusive [inhibitor, single point]
CSc1ccc(COC(=O)c2cc([N+](=O)[O-])ccc2N2CCOCC2)cc1	inconclusive [inhibitor, single point]
N#Cc1ccc(OCC(O)CN2CCC(C(O)(c3ccccc3)c3ccccc3)CC2)cc1 (stereo not given)	inconclusive [inhibitor, single point]
COc1cccc(CN(C)C(=O)CC2C(=O)NCCN2C2Cc3ccccc3C2)c1 (stereo not given)	inactive
Cc1ccc(C(NC(=O)c2ccccc2S(C)(=O)=O)c2ccccc2)cc1 (stereo not given)	inconclusive [inhibitor, partial curve]
Cc1cc(C(=O)CCl)c(C)n1CC1COc2ccccc2O1 (stereo not given)	inconclusive [inhibitor, partial curve, poor fit]
COC(=O)c1ccc(CSc2nnc3nc(C)cc(C)n23)cc1	inconclusive [inhibitor, single point]
Cc1nnc(SC(C)C(=O)NC2CCCCC2C)s1 (stereo not given)	inactive
CCn1ccnc1CN1CCN(CC(C)C)C(CCO)C1 (stereo not given)	inactive
[O-][n+]1c2cc(C(F)(F)F)ccc2c2n1CCN=C2c1ccc(Cl)cc1	inconclusive [inhibitor, single point]
Cc1ccc(C)c(OCC(O)CN2CCCCC2C)c1 (stereo not given)	inconclusive [inhibitor, single point]
Cc1[nH]c2ccccc2c1CN1CCC(Cc2ccccc2)CC1	inconclusive [inhibitor, single point]
COc1cc(Br)c(-c2sc(Nc3ccccc3)n[n+]2-c2ccc(F)cc2)cc1OC	active: 1.85 µM
S=c1sc2ccccc2n1CCc1ccncc1	inconclusive [inhibitor, single point]
COc1ccc(C(=O)NCCSCc2ccccc2)cc1OC	inactive
CCOc1cccc2sc(N(CCCN(C)C)C(=O)c3ccc(S(=O)(=O)N4CCCCCC4)cc3)nc12	inconclusive [inhibitor, single point]
O=C(CNC(=O)c1ccccc1F)N/N=C/c1cccs1	inactive
O=C(Nc1nc2c(Br)cc(Br)cc2c(=O)s1)c1ccco1	inactive
CC(C)(C)OC(=O)N1CCC(c2c(C(=O)NC3CC3)cnn2-c2ccc(Cl)cc2)CC1	inconclusive [inhibitor, partial curve]
COCCn1c(SCc2ccc(C(=O)OC)o2)nc2ccccc2c1=O	inactive
Cc1ccccc1OCCN1C(=O)C(=O)c2cccc(C)c21	inconclusive [inhibitor, single point]
CS(=O)(=O)N(CC(=O)NC1CC2CCC1C2)c1cccc(C(F)(F)F)c1 (stereo not given)	inactive
CCOC(=O)N1CCN(C(=O)C2CCN(S(=O)(=O)c3cc(Cl)ccc3Cl)CC2)CC1	active: 7.38 µM

SMILES	Potency
CN(C(=O)c1cccc(COc2ccc(Cl)cc2Cl)c1)c1ccccc1	inactive
Cc1ccc(S(=O)(=O)N(C)S(=O)(=O)c2ccc(C#N)cc2)cc1	inactive
COCC(C)n1c(C)cc(C(=O)CN2C(=O)NC3(CCCCC3C)C2=O)c1C (stereo not given)	inconclusive [inhibitor, single point]
CCCC(=O)Nc1nnc(S(=O)(=O)N(CC(C)C)c2ccccc2)s1	inactive
CC(CC(=O)O)CC(=O)Nc1ccccc1C(=O)O (stereo not given)	inactive
CCOC(=O)C1=C(COC(=O)c2ccccc2[N+](=O)[O-])NC(=O)NC1C (stereo not given)	inactive
O=C(NC1CC1)C1=C[C@H](c2ccc3c(c2)OCO3)C[C@H](OCc2ccc(CO)cc2)O1	inactive
Cc1cc(C)c(S(=O)(=O)NCC(=O)NCc2cc(=O)n(C)c(=O)n2C)c(C)c1	inactive
Cc1noc(C)c1C(=O)Nc1ccc(S(=O)(=O)N2CCC(C)CC2)cc1	inconclusive [inhibitor, single point]
COc1ccc2cc(OCC(=O)NNC(=O)Nc3ccc(F)cc3)ccc2c1	inactive
CN1C(=S)SC(N(O)C(=O)Nc2ccc(Cl)c(Cl)c2)C1(C)C (stereo not given)	inconclusive [inhibitor, partial curve, poor fit]
CC(Oc1ccc(F)cc1F)C(=O)NNC(=S)NCC1CCCO1 (stereo not given)	inconclusive [inhibitor, single point]
COc1ccc(C(=O)N2CCSCC2)cc1OC1CCN(C(C)=O)CC1	inactive
CCc1ccc(OCC(=O)N/N=C/c2cc([N+](=O)[O-])ccc2N2CCCCCC2)cc1	inconclusive [inhibitor, single point]
Fc1cccc(-c2cc3nc4c(c(N5CCOCC5)n3n2)CCCC4)c1	active: 8.28 µM
COc1ccc(C(CC(=O)O)NS(=O)(=O)c2ccc(C)cc2)cc1OC (stereo not given)	inactive
COc1ccccc1Cn1nnc2c(=O)[nH]c(C3CCN(C(=O)c4ccccc4Cl)CC3)nc21	active: 9.28 µM
CN(C)C(=S)SCC(=O)NC(=O)NC(C)(C)C	inactive
CCCCCC1=CCC/C1=N\NC(=O)c1ccc2c(c1)OCO2	inconclusive [inhibitor, single point]
Cc1ccc(NC(=O)CCN2CCC(Cc3ccccc3)CC2)cc1	active: 7.38 µM
CCO/C=C/C(=O)N(C)CCC#N	inactive
CCC1CCCCN1C(=O)c1ccc(OC)c(OC2CCN(C(C)C)CC2)c1 (stereo not given)	inconclusive [inhibitor, single point]
c1ccc(N=P(N2CCOCC2)(N2CCOCC2)N2CCOCC2)cc1	inactive
CCOC(=O)[C@@H]1[C@H]2COc3cc(OC)ccc3[C@@H]2N2C(=O)N(c3ccc(C)cc3)C(=O)[C@@]12C	inconclusive [inhibitor, full curve, poor fit]
CS(=O)(=O)NCCNc1ncc(C(F)(F)F)cc1Cl	inconclusive [inhibitor, full curve, poor fit]
